Measurements published in ChEMBL document CHEMBL1201862, “PubChem BioAssay data set” (2004).
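96-well plates; 48 h exposure; 5 concentrations. Endpoints by linear interpolation between flanking doses. Not reached: highest tested concentration assigned. The concentration for 50% growth inhibition is given as GI50.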 Active and inactive are the calls of the source. Cut-off read from the data, not from the text of the source: active = GI50 up to about 1.1 µM and inactive = higher.

What follows are compounds tested on NCI-H322M (assay: NCI anticancer screen, dose series, 48 h).
In the case of `COc1ccc(-c2cc3c(nn2)-c2ccccc2C3=O)cc1`, the GI50 is reported as inactive: > 10 µM. `C#CCN(Cc1ccc2nc(-c3ccccc3)c(Cl)nc2c1)c1cc(OC)c(OC)c(OC)c1` was tested, and the GI50 was inactive: > 100 µM. With `O=C(O)c1nn(-c2ccc(Cl)cc2)c2c1C(=O)c1ccccc1C2=O` the GI50 was inactive: 41.8 µM. With `CCOC(=O)C(NC(=O)CC)(Nc1ccc(S(=O)(=O)Nc2onc(C)c2C)cc1)C(F)(F)F` (stereo not drawn) the GI50 was inactive: > 100 µM. `NCc1nnn(Cc2ccccc2)c1N` was tested, and the GI50 was inactive: > 100 µM. In the case of `CCOC(=O)/C(=C\c1ccccc1)C(=O)CCN1CCOCC1`, the GI50 is reported as inactive: 23.7 µM. For `COc1ccc2c(c1)OCC1Cc3cccc(OC)c3OC21` (stereo not drawn), the GI50 was inactive: > 100 µM. With `CCOC(=O)C(C)(c1cn(C)c2ccccc12)c1cn(C)c2ccccc12` the GI50 was inactive: > 100 µM. In the case of `COc1ccc(/C=C(/c2ccccc2)c2c(C)cc(C)c(/C(=C\c3ccc(OC)cc3)c3ccccc3)c2/N=N/c2cc(C)cc(C)c2)cc1`, the GI50 is reported as inactive: 52 µM. `COc1ccc(C(CC(C)=O)c2c(O)c3ccccc3oc2=O)cc1OC` (stereo not drawn) was tested, and the GI50 was inactive: > 100 µM. In the case of `N#CCCCC[N+]12CN3CN(CN(C3)C1)C2`, the GI50 is reported as inactive: > 100 µM. In the case of `CCCC[C@H]1[C@@H](OCOc2ccccc2)COC(=O)N1[C@H](C)c1ccccc1`, the GI50 is reported as inactive: 24.3 µM. `Cc1ccc2nc3ccccc3c(C3C4C(=O)N(c5ccc(F)cc5)C(=O)C4ON3C(C(N)=O)c3ccccc3)c2c1` (stereo not drawn) was tested, and the GI50 was inactive: > 100 µM. `CC1CN(c2cc3c(cc2F)c(=O)c(C(=O)O)cn3-c2ccc(N3CCN(C)CC3)cn2)CC(C)N1` (stereo not drawn) was tested, and the GI50 was inactive: > 100 µM. With `COC12C=CC(CC1)C1C(=O)c3c(C)c(C)n(C)c3C(=O)C12` (stereo not drawn) the GI50 was inactive: > 100 µM. In the case of `CCOC(=O)c1cn2c(n1)sc1c(Cl)c(Cl)ccc12`, the GI50 is reported as inactive: 32.4 µM. `CCOC(=O)c1sc2c(C(=O)OCC)n3cc(C)cc(C)c3c2c1O` was tested, and the GI50 was inactive: > 100 µM. For `C[C@]12CCC(=O)C=C1CC[C@@H]1C2CC[C@]2(C)Nc3c(ncn3-c3ccc(F)cc3)CC12` (stereo partly drawn), the GI50 was inactive: 56.8 µM. `COc1ccccc1-c1cc(=O)c2ccccc2[nH]1` was tested, and the GI50 was inactive: > 100 µM. `c1ccc(CN2CCC3(CC2)SSC2(CCN(Cc4ccccc4)CC2)S3)cc1` was tested, and the GI50 was inactive: > 100 µM. `CCOC(=O)c1ccc(NC(=O)SCCC(=O)O)cc1` was tested, and the GI50 was inactive: > 100 µM. With `O=C(c1ccc(Cl)cc1Cl)N(Cc1cccnc1)C(=S)N(Cc1cccnc1)C(=O)c1ccc(Cl)cc1Cl` the GI50 was inactive: 3.57 µM. With `O=C(Cc1nc2ccccc2s1)Nc1ccc(Cl)cc1` the GI50 was inactive: > 100 µM. `CSc1nc(C)cc(=O)n1C1OC(COC(C)=O)C(OC(C)=O)C(OC(C)=O)C1OC(C)=O` (stereo not drawn) was tested, and the GI50 was inactive: > 100 µM. For `NC(=O)NNC(=O)NC12CC3CC(CC(C3)C1)C2`, the GI50 was inactive: > 100 µM. With `CCCCOC(=O)/C(CC(=O)C=C(C)C)=N\NS(=O)(=O)c1ccc(C)cc1` the GI50 was inactive: > 100 µM. In the case of `N#CI1OC(C(F)(F)F)(C(F)(F)F)c2ccccc21`, the GI50 is reported as inactive: > 100 µM. For `CCn1cc(C(=O)O)c(=O)c2cc3c(cc21)S(=O)(=O)CC3`, the GI50 was inactive: > 100 µM. `Cc1c(O)c(OC2OC(CO)C(O)C(O)C2O)cc2c1C=C[C@@H]1[C@@]2(C)C(=O)C[C@]2(C)[C@@H]([C@@](C)(O)C(O)/C=C/C(C)(C)O)[C@H](O)C[C@@]12C` (stereo partly drawn) was tested, and the GI50 was inactive: > 100 µM. In the case of `NC12CC3C4CC5(N)CC3C(C1)C(C5)C4C2`, the GI50 is reported as inactive: > 100 µM. `COc1ccc(C(=O)/C=C/c2cc(O)c(O)cc2F)c(OC)c1` was tested, and the GI50 was inactive: 3.95 µM. `COC(=O)C1C(O)C(C)C(O)C(C)(O)/C=C\C=C(C)C(=O)Nc2c(C)c(OC(C)=O)c3c(c2O)C(=O)C(C)=C2OCOC(=C23)C(C)=CC(C)(O)C(O)C(C)C1OC(C)=O` (stereo not drawn) was tested, and the GI50 was inactive: 29.4 µM. With `ON[C@@H]1C=C[C@H](n2cnc3c(NC4CC4)ncnc32)C1` the GI50 was inactive: > 100 µM. `CC1(C)c2ccccc2N2O[C@@H]3C(=O)N(c4ccccc4)C(=O)[C@@H]3C21c1ccccc1` (stereo partly drawn) was tested, and the GI50 was inactive: > 100 µM. `Cc1nc(Nc2nc3ccccc3[nH]2)nc(Cl)c1CCCl` was tested, and the GI50 was inactive: > 100 µM. `CCC1(c2ccc(OC)c(OC)c2)CCN2C(=O)C(O)CC21` (stereo not drawn) was tested, and the GI50 was inactive: > 100 µM. For `COc1ccc(CCn2ccc(=O)c(O)c2C)cc1OC`, the GI50 was inactive: 24.9 µM. `COc1ccc2c(c1)c1c3c(ccc4ncn2c43)N(CCN(C)C)CCN=1` was tested, and the GI50 was active: 0.322 µM. For `NC1=NCCC1(c1ccccc1)c1ccccn1` (stereo not drawn), the GI50 was inactive: > 100 µM. For `COc1ccc(/C(=N\NC(=O)C(N)=O)C(c2ccc(OC)cc2)C2(O)C(=O)Nc3c(Cl)cccc32)cc1` (stereo not drawn), the GI50 was inactive: > 100 µM. `CCCCCCCCOCC(O)CO` (stereo not drawn) was tested, and the GI50 was inactive: > 100 µM. With `CC[C@]1(Cc2ccc(OC)c(OC)c2)CN(S(=O)(=O)c2ccc(C)cc2)C[C@@H]1OC(C)=O` the GI50 was inactive: > 100 µM. For `COc1ccccc1C1CC(=O)CC(c2ccccc2OC)C12C(=O)NC(=S)NC2=O` (stereo not drawn), the GI50 was inactive: 57.7 µM. In the case of `S=P1(N2CCCCC2)Oc2ccc3ccccc3c2-c2c(ccc3ccccc23)O1`, the GI50 is reported as inactive: > 100 µM. `O=C1CC(c2cccc(Cl)c2)n2cccc21` (stereo not drawn) was tested, and the GI50 was inactive: > 100 µM. For `OC(C/C=N/Nc1ccccc1)(C(F)(F)Cl)C(F)(F)Cl`, the GI50 was inactive: > 10 µM. With `O=C(/N=N/c1ccc(Br)cc1)NNc1ccc(Br)cc1` the GI50 was inactive: 38.5 µM. In the case of `COc1ccc(C(=O)N2CCN(c3ccc4c(c3)OCC(=O)N4)CC2)cc1OC`, the GI50 is reported as inactive: > 100 µM. For `CN(c1ccccc1Cl)S(=O)(=O)c1ccccc1[N+](=O)[O-]`, the GI50 was inactive: > 100 µM. `COC(=O)/C(=N\NC(C)(C)C)C(C(=O)C(=O)Nc1cc(C)ccc1C)c1nc2ccccc2nc1O` (stereo not drawn) was tested, and the GI50 was inactive: > 100 µM. In the case of `CC1(C)OCC(/C=C\C(O)CC2(C)OCCO2)CO1` (stereo not drawn), the GI50 is reported as inactive: > 100 µM. With `CSc1nnc2n1-c1ccccc1SCC2` the GI50 was inactive: > 100 µM. In the case of `Cc1ccc(S(=O)(=O)NNC(=O)Nc2ccc([N+](=O)[O-])cc2)cc1`, the GI50 is reported as inactive: 88.3 µM. For `COC(=O)C(Cc1c[nH]c2ccccc12)NC1=Nc2ccncc2S(=O)(=O)N1c1cccc(OC(C)C)c1` (stereo not drawn), the GI50 was inactive: 48.2 µM. `CN(C)CCNC(=O)c1ccccc1Nc1c(Cl)cccc1Cl` was tested, and the GI50 was inactive: 15.1 µM. With `CCOC(=O)c1nc2ccc(C(F)(F)F)cc2nc1Oc1ccc(OC)cc1` the GI50 was inactive: > 100 µM. In the case of `CCCCCCCCCC/C=C/C=O`, the GI50 is reported as inactive: > 100 µM. For `O=C(O)c1c(CC(Cc2ccccc2)C(=O)O)ccc2c1CCC2` (stereo not drawn), the GI50 was inactive: > 100 µM. `Cc1cc2nc3c(N)nn(CCCN(C)C)c3nc2cc1C` was tested, and the GI50 was inactive: 53.2 µM. `Nn1c(Cc2ccc(Cl)cc2)n[nH]c1=O` was tested, and the GI50 was inactive: > 100 µM. `CC(C)C1OC(=O)C=C1Sc1ccccc1` (stereo not drawn) was tested, and the GI50 was inactive: > 100 µM. With `CCOC(=O)NC(=O)c1cn(CCOC(=O)CCCCCCCCC(=O)OCCn2cc(C(=O)NC(=O)OCC)c(=O)[nH]c2=O)c(=O)[nH]c1=O` the GI50 was inactive: > 100 µM. `CC(=O)Nc1ccc(/C=C2/NC(=S)N(/C=C3\C(=O)Oc4ccccc4C3=O)C2=O)cc1` was tested, and the GI50 was inactive: 79.4 µM. For `CC(C)(/N=N/C(C)(C)C1=NCCN1)C1=NCCN1`, the GI50 was inactive: > 100 µM. With `COC(=O)/C=C\[C@@H]1[C@H](C)N1S(=O)(=O)c1ccc(C)cc1` (stereo partly drawn) the GI50 was inactive: > 100 µM. In the case of `CCN(CC)Cc1nc2sc3c(c2c(=O)n1-c1ccccc1)CCCC3`, the GI50 is reported as inactive: 33.7 µM. For `COC1=C[C@]2(CCC(=O)O2)[C@@H]2Cc3ccccc3[C@H](O)[C@@H]2C1=O`, the GI50 was inactive: > 100 µM. With `c1ccc2c(c1)[nH]c1nc3cc(-c4ccc5nc6c(nc5c4)[nH]c4ccccc46)ccc3nc12` the GI50 was inactive: > 100 µM. For `Cc1cc2c(c(S(=O)(=O)c3ccc(Cl)cc3[N+](=O)[O-])c1)NCCC2`, the GI50 was inactive: > 100 µM. With `COc1cc(CNc2ccc3nc4n(c(=O)c3c2)CCCCC4)cc(OC)c1OC` the GI50 was inactive: > 100 µM. For `Cc1c(C)c(C)c(Cn2[nH]c(=O)n(C)c2=O)c(C)c1C`, the GI50 was inactive: > 100 µM. With `CCC1(CN(C)C)CC/C(=C\c2ccc(OC)c(OC)c2)C1=O` (stereo not drawn) the GI50 was inactive: > 100 µM. In the case of `COc1ccc(C2S/C(=C\c3ccc([N+](=O)[O-])cc3)C(=O)N2NC(=O)Cc2ccccc2)cc1` (stereo not drawn), the GI50 is reported as inactive: > 100 µM. In the case of `Oc1c(C(O)c2ccccn2)ccc2ccccc12` (stereo not drawn), the GI50 is reported as inactive: 64.1 µM. With `CSc1nc(Nc2ccccc2Cl)c2c(N)nn(C)c2n1` the GI50 was inactive: > 100 µM. `COc1cc(Cn2c(=S)ss/c2=N\C(=S)N(C)C)cc(OC)c1OC` was tested, and the GI50 was inactive: > 46.7 µM. With `COc1ccc(N2C(=O)C(C#N)=C(SC)C(C#N)C2=O)cc1` (stereo not drawn) the GI50 was inactive: > 100 µM. With `CCCC(C)c1c(Cl)nc(Cl)nc1Cl` (stereo not drawn) the GI50 was inactive: 12 µM. With `O=C(Cc1ccccc1)C(c1ccccc1)S(=O)(=O)c1ccccc1` (stereo not drawn) the GI50 was inactive: > 100 µM. `Cc1ccc(Nc2n[nH]c(=S)s2)cc1C` was tested, and the GI50 was inactive: > 100 µM. For `Cc1c(C(=O)O)oc2ccc([N+](=O)[O-])cc12`, the GI50 was inactive: > 100 µM. For `Clc1cc(-c2ccccc2)nc2ccccc12`, the GI50 was inactive: 73.6 µM. In the case of `COC(=O)C1(C(=O)OC)N=C(C)OC1/C=C/c1ccccc1` (stereo not drawn), the GI50 is reported as inactive: > 100 µM. `COC12C=CC(CC1)c1c(O)ccc(O)c12` (stereo not drawn) was tested, and the GI50 was inactive: > 93.1 µM. With `CCc1ccc2c(c1)CC1(C2)Cc2cc3c(cc2C1)C(=O)CC3` (stereo not drawn) the GI50 was inactive: 26.7 µM. For `CN(C)CCOc1cc2c(c3ccccc13)-c1ccccc1C2=O`, the GI50 was inactive: 2.32 µM. With `O/N=N/c1ccc2ccccc2n1` the GI50 was inactive: > 100 µM. In the case of `Nc1cc(O)c2cc(/N=N/c3ccc(/N=N/c4ccc(/N=N/c5ccc6cc(S(=O)(=O)O)cc(S(=O)(=O)O)c6c5)c5ccccc45)c4cc(S(=O)(=O)O)ccc34)c(S(=O)(=O)O)cc2c1`, the GI50 is reported as inactive: > 100 µM. In the case of `O=S(=O)(O)c1cccc2c(/N=N/c3c(O)ccc4ccccc34)cccc12`, the GI50 is reported as inactive: > 100 µM. In the case of `O=S(=O)(O)c1ccc2c(/N=N/c3ccc(Cl)cc3)c(O)ccc2c1`, the GI50 is reported as inactive: > 100 µM. `CC(=O)c1ccc2c(c1)C(=O)c1sc(C(C)=O)cc1C2=O` was tested, and the GI50 was inactive: 2.61 µM. With `Cc1cccc(Cl)c1NC(=O)c1cccc([N+](=O)[O-])c1O` the GI50 was inactive: 61.4 µM. `N#CC(C#N)=C(N)/C(C#N)=C/c1ccc2[nH]ccc2c1` was tested, and the GI50 was inactive: > 100 µM.
